{"source": "PubChem BioAssay AID360", "about": "(National Center for Advancing Translational Sciences (NCATS), 2006)", "note": "About 550 (1.1%) of roughly 48,000 compounds were called active. Inconclusive results (about 4%) are left out. No stated cut-off is given here; in the data, active means potency below about 15 µM; inconclusive means mostly about 16 µM to 33 µM; inactive means weaker than that. The list shows a part of the results. Potency means the concentration at half of the fitted maximal effect."}
{"molecular_target": "Lysosomal acid glucosylceramidase (Homo sapiens) (UniProt P04062)", "sequence (P04062 whole entry, looked up)": "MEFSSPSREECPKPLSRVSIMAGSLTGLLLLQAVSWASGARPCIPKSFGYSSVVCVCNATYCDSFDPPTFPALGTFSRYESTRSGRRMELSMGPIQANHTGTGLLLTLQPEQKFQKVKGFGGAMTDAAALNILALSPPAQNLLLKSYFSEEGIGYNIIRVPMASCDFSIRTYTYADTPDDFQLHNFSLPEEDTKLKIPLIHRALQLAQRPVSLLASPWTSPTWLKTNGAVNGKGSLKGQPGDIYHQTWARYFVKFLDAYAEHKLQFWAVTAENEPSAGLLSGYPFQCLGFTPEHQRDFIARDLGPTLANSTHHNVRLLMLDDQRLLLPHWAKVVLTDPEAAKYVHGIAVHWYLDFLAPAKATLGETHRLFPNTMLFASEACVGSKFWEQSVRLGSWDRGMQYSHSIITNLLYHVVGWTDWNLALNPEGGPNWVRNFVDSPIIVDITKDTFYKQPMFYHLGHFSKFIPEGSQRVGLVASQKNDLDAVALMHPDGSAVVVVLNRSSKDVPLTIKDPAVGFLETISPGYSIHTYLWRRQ", "test": "Glucocerebrosidase;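 further: the screen sought inhibitors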", "details": "purified enzyme, resorufin glucoside fluorescence (screen aimed at inhibitors), 20 min", "outline": "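Wild-type enzyme at 0.2 nM final in 50mM citric acid/KH2PO4, 10mM sodium taurocholate, 0.01% tween-20, pH 5.9, with resorufin beta-D-glucopyranoside at 30 uM final. Compounds titrated, 20 min at RT, red fluorescence read; AC50 from titration.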"}
{"smiles": "CCOc1ccc(C(C)=O)cc1COC(=O)C1=COCCO1", "Potency": "inactive: > 76.9 µM"}
{"smiles": "CC(=O)N1CCc2cc(S(=O)(=O)NCCC(=O)Nc3cccc(C)c3C)ccc21", "Potency": "inactive: > 76.9 µM"}
{"smiles": "CCOc1cc(C(=O)NCc2nnc(SCC(=O)OC)n2C)cc(OCC)c1OCC", "Potency": "inactive: > 76.9 µM"}
{"smiles": "Clc1ccc(SCCn2cncn2)cc1", "Potency": "inactive: > 76.9 µM"}
{"smiles": "COc1ccc(-c2nc(C#N)c(NCCc3ccccc3)o2)cc1", "Potency": "inactive: > 76.9 µM"}
{"smiles": "CC(c1ccccc1)C1CC(=O)N(c2ccc(C(=O)O)cc2)C1=O", "note": "(stereo unspecified)", "Potency": "inactive: > 76.9 µM"}
{"smiles": "COc1ccccc1NC(=O)CSc1nc(N)cc(N)n1", "Potency": "inactive: > 76.9 µM"}
{"smiles": "COc1ccc(OC)c(N)c1", "Potency": "inactive: > 76.9 µM"}
{"smiles": "Cc1ccc(-n2ncc3c(=O)n(CC(=O)N4CCCc5ccccc54)cnc32)cc1C", "Potency": "inactive: > 76.9 µM"}
{"smiles": "O=C(O)CCNS(=O)(=O)c1ccccc1", "Potency": "inactive: > 76.9 µM"}
{"smiles": "O=C(NCCN1C(=O)CSC1=O)c1ccccc1", "Potency": "inactive: > 76.9 µM"}
{"smiles": "N#Cc1nc(COc2ccc(Cl)cc2Cl)oc1N1CCOCC1", "Potency": "inactive: > 76.9 µM"}
{"smiles": "CC(=O)CC(C)=NCCN=C(C)CC(C)=O", "Potency": "inactive: > 76.9 µM"}
{"smiles": "Cc1cc(O)c(C2(C(F)(F)F)NCCNC2=O)cc1C", "note": "(stereo unspecified)", "Potency": "inactive: > 76.9 µM"}
{"smiles": "O=C1CC(NCc2ccco2)C(=O)N1CCc1ccccc1", "note": "(stereo unspecified)", "Potency": "inactive: > 76.9 µM"}
{"smiles": "CN=CC1=C(O)CC(C)(C)CC1=O", "Potency": "inactive: > 76.9 µM"}
{"smiles": "CCN1CCN(C(=O)c2sc3nc(C)nc(N4CCC(C)CC4)c3c2C)CC1", "Potency": "inactive"}
{"smiles": "O=C(O)CCCNc1cc(N2CCC3(CC2)OCCO3)c2noc3c2c1C(=O)c1ccccc1-3", "Potency": "active: 11.8 µM"}
{"smiles": "Cc1cc(NC(=O)Cn2c(=O)n(Cc3ccccc3)c(=O)c3ccccc32)no1", "Potency": "inactive: > 76.9 µM"}
{"smiles": "Cc1ccc2c(c1)CCCN2C(=O)c1ccc2c(c1)OCO2", "Potency": "inactive: > 76.9 µM"}
{"smiles": "CCn1c(=O)cc(SCC(=O)NCc2ccco2)c2ccccc21", "Potency": "inactive: > 76.9 µM"}
{"smiles": "Cc1cc(C)cc(N(CC(=O)NC2CCCCC2)C(=O)CCC(=O)Nc2cc(C)ccn2)c1", "Potency": "inactive: > 76.9 µM"}
{"smiles": "CC(=O)c1cc2c(cc1NC(=O)CN1CCCCC1C)OCO2", "note": "(stereo unspecified)", "Potency": "inactive: > 76.9 µM"}
{"smiles": "COc1ccc(-c2nc(=S)c3c(n2CCN2CCOCC2)CC(C)(C)OC3)cc1", "Potency": "inactive: > 76.9 µM"}
{"smiles": "Cn1c(SCc2ccc(F)cc2)nnc1-c1cccs1", "Potency": "inactive: > 76.9 µM"}
{"smiles": "COC(=O)c1ccccc1NC(=O)C1CC(c2ccccc2O)=NO1", "note": "(stereo unspecified)", "Potency": "inactive: > 76.9 µM"}
{"smiles": "COC(=O)c1ccc(S(=O)(=O)N2CCCC2)o1", "Potency": "inactive: > 76.9 µM"}
{"smiles": "CCOC(=O)CSc1nnc(CNC(=O)c2cccs2)n1Cc1ccccc1", "Potency": "inactive: > 76.9 µM"}
{"smiles": "CCCn1c(=O)c(C(=O)Nc2ccccc2C(=O)OCC)c(O)c2ccccc21", "Potency": "inactive"}
{"smiles": "COc1ccc(CCNC(=O)CSc2nc(N)c3c(C)c(C)oc3n2)cc1OC", "Potency": "inactive: > 76.9 µM"}
{"smiles": "CCn1c(SCC(=O)Nc2ccccc2N2CCOCC2)nnc1-c1ccccc1", "Potency": "inactive: > 76.9 µM"}
{"smiles": "O=C(O)c1cccn2c(=O)c3ccccc3nc12", "Potency": "inactive: > 76.9 µM"}
{"smiles": "O=C(Cn1c(=O)n2ncnc2c2c3c(sc21)CCCC3)c1ccccc1", "Potency": "inactive: > 76.9 µM"}
{"smiles": "COc1cc(S(=O)(=O)N2CCN(c3ccccc3F)CC2)c(OC)cc1Cl", "Potency": "inactive: > 76.9 µM"}
{"smiles": "O=C(NC1CC1)c1c[nH]c2ccc(S(=O)(=O)Nc3cccc(C(F)(F)F)c3)cc2c1=O", "Potency": "inactive: > 76.9 µM"}
{"smiles": "COC(=O)c1ccccc1NC(=O)CNc1cc(Cl)ccc1N1CCOCC1", "Potency": "inactive: > 76.9 µM"}
{"smiles": "Cn1c(=O)oc2cc(S(=O)(=O)NCCC(=O)Nc3ccc4c(c3)OCCO4)ccc21", "Potency": "inactive: > 76.9 µM"}
{"smiles": "Cc1ccc(C2NC(=O)c3c(sc4c3CCN(C)C4)N2)o1", "note": "(stereo unspecified)", "Potency": "inactive: > 76.9 µM"}
{"smiles": "CCOc1ccc(C(=O)NCC(C)CN(C)C)cc1OCC", "note": "(stereo unspecified)", "Potency": "inactive: > 76.9 µM"}
{"smiles": "COCCNC(=O)c1cc2sc3ccccc3c2s1", "Potency": "inactive: > 76.9 µM"}
{"smiles": "COc1ccc(CNC(=O)C2CC=CCC2C(=O)O)cc1OC", "note": "(stereo unspecified)", "Potency": "inactive: > 76.9 µM"}
{"smiles": "CC12CCC(C(=O)N3CCN(c4ncccn4)CC3)(c3nc4ccccc4nc31)C2(C)C", "note": "(stereo unspecified)", "Potency": "inactive: > 76.9 µM"}
{"smiles": "CCC(C)c1ccc(O)c(NC(=O)c2cccnc2)c1", "note": "(stereo unspecified)", "Potency": "inactive: > 76.9 µM"}
{"smiles": "O=C(OC(C(=O)NC1CCCC1)c1ccc(F)cc1)c1ccno1", "note": "(stereo unspecified)", "Potency": "inactive: > 76.9 µM"}
{"smiles": "O=C(CCNS(=O)(=O)c1ccc2c(c1)CCC(=O)N2)NCc1cccnc1", "Potency": "inactive: > 76.9 µM"}
{"smiles": "Cc1cc(Cl)ccc1OCC(=O)N1CCCCC1", "Potency": "inactive: > 76.9 µM"}
{"smiles": "COc1ccc(OC)c(-c2cc(C(=O)Nc3c(C)nn(Cc4ccccc4)c3C)no2)c1", "Potency": "inactive: > 76.9 µM"}
{"smiles": "CCCNC(=O)CC(NS(=O)(=O)c1ccc(Cl)cc1)c1ccco1", "note": "(stereo unspecified)", "Potency": "inactive: > 76.9 µM"}
{"smiles": "Clc1ccc(Cn2ncc3c(NCc4ccco4)ncnc32)c(Cl)c1", "Potency": "inactive"}
{"smiles": "COc1cc2[nH]c3c(N4CCN(c5ccc(Cl)cc5)CC4)ncnc3c2cc1OC", "Potency": "inactive: > 76.9 µM"}
{"smiles": "O=C(CN1C(=O)C2CC=CCC2C1=O)Nc1nc2ccccc2[nH]1", "note": "(stereo unspecified)", "Potency": "inactive: > 76.9 µM"}
{"smiles": "CCN(CC)CCCNC(=O)c1cn(CCOC)c(=O)c2c1c1ccccc1n2C", "Potency": "inactive: > 76.9 µM"}
{"smiles": "O=S(=O)(Cc1ccccc1)NCc1ccccn1", "Potency": "inactive: > 76.9 µM"}
{"smiles": "CCn1nnc(-c2ccccc2NS(=O)(=O)c2ccc(S(=O)(=O)N3CCCCCC3)cc2)n1", "Potency": "inactive: > 76.9 µM"}
{"smiles": "COc1ccc(COC(=O)c2nc3nc(C)cc(C)n3n2)cc1F", "Potency": "inactive: > 76.9 µM"}
{"smiles": "O=c1cc(CSc2ccccn2)nc(N2CCN(c3ccccc3)CC2)[nH]1", "Potency": "inactive: > 76.9 µM"}
{"smiles": "CC1=C(C)CC(C(=O)Nc2cccc(Cl)c2)C(C(=O)O)C1", "note": "(stereo unspecified)", "Potency": "inactive: > 76.9 µM"}
{"smiles": "CCS(=O)(=O)NCc1cn2c(C)csc2n1", "Potency": "inactive: > 76.9 µM"}
{"smiles": "Nc1c(Sc2ccccc2)c(=O)[nH]c(=O)n1Cc1ccccc1", "Potency": "inactive: > 76.9 µM"}
{"smiles": "O=C(c1ccccc1Cl)N1CCN(c2ccccn2)CC1", "Potency": "inactive: > 76.9 µM"}
{"smiles": "CCCc1[nH]nc2c1C(Cc1ccccc1)C(C#N)=C(N)O2", "note": "(stereo unspecified)", "Potency": "inactive: > 76.9 µM"}
{"smiles": "COc1cc(CC(=O)Nc2ccc(S(=O)(=O)Nc3ncccn3)cc2)cc(OC)c1OC", "Potency": "inactive: > 76.9 µM"}
{"smiles": "FC(F)(F)c1cc(-c2cccs2)nc(N2CCOCC2)n1", "Potency": "inactive: > 76.9 µM"}
{"smiles": "Cc1ccc(N(C(C)C(=O)O)S(=O)(=O)c2c(C)n[nH]c2C)cc1", "note": "(stereo unspecified)", "Potency": "inactive: > 76.9 µM"}
{"smiles": "O=C(Cn1nnc(-c2ccccc2)n1)N1CCN(S(=O)(=O)c2ccc(Cl)cc2)CC1", "Potency": "inactive: > 76.9 µM"}
{"smiles": "C/C(=C(\\C#N)C(=O)NCCCN1CCOCC1)N(C)C", "Potency": "inactive: > 76.9 µM"}
{"smiles": "CS(=O)(=O)N1CCN(C(=O)c2ccncc2)CC1", "Potency": "inactive: > 76.9 µM"}
{"smiles": "Cn1nnnc1SCC(=O)NC(=O)NCc1ccccc1", "Potency": "inactive: > 76.9 µM"}
{"smiles": "CC(=O)c1cccc(NC2c3ncccc3C(=O)N2Cc2ccco2)c1", "note": "(stereo unspecified)", "Potency": "inactive: > 76.9 µM"}
{"smiles": "COc1ccc(CNC(=O)c2cccc(N3CCCC3=O)c2)cc1", "Potency": "inactive: > 76.9 µM"}
{"smiles": "CC(=O)Nc1cc(C(F)(F)F)ccc1OCC1CCCO1", "note": "(stereo unspecified)", "Potency": "inactive: > 76.9 µM"}
{"smiles": "Cn1nnnc1SCC(=O)N1CCN(c2ccc(Cl)cc2)CC1", "Potency": "inactive: > 76.9 µM"}
{"smiles": "COC(=O)C1=CNC=C(C(=O)OC)C1c1cccc(OC)c1", "Potency": "inactive: > 76.9 µM"}
{"smiles": "COc1ccccc1NC(=O)N(Cc1ccco1)Cc1cc2cc(C)cc(C)c2[nH]c1=O", "Potency": "inactive: > 76.9 µM"}
{"smiles": "O=C(Nc1c(C(=O)N2CCOCC2)cnn1-c1ccccc1Cl)c1ccco1", "Potency": "inactive: > 76.9 µM"}
{"smiles": "CCN(CC)S(=O)(=O)c1ccc2[nH]c(=O)[nH]c2c1", "Potency": "inactive: > 76.9 µM"}
{"smiles": "CCOC(=O)c1ccc(NC(=O)C(CC)(CC)C(=O)OCC)cc1", "Potency": "inactive: > 76.9 µM"}
{"smiles": "C=CCOc1cccc(C2/C(=C(/O)c3ccc(C)cc3)C(=O)C(=O)N2CCN2CCOCC2)c1", "note": "(stereo unspecified)", "Potency": "inactive"}
{"smiles": "COc1cccc(C2/C(=C(\\O)c3c(C)nc4c(C)cccn34)C(=O)C(=O)N2CCCN(C)C)c1", "note": "(stereo unspecified)", "Potency": "inactive: > 76.9 µM"}
{"smiles": "CCOC(=O)N1CCN(C(=O)CCc2c(C)nc3nc(C)nn3c2C)CC1", "Potency": "inactive: > 76.9 µM"}
{"smiles": "Cc1ccccc1OCCn1c(=O)oc2ccccc21", "Potency": "inactive: > 76.9 µM"}
{"smiles": "CN(C(=O)COC(=O)C1c2ccccc2Oc2ccccc21)C1CCS(=O)(=O)C1", "note": "(stereo unspecified)", "Potency": "inactive: > 76.9 µM"}
{"smiles": "COc1ccc(Br)cc1C(=O)Nc1nnn(C)n1", "Potency": "inactive: > 76.9 µM"}
{"smiles": "COc1ccc(CCn2nnnc2C(C(C)C)N2CCN(c3ncccn3)CC2)cc1OC", "note": "(stereo unspecified)", "Potency": "inactive: > 76.9 µM"}
{"smiles": "CS(=O)(=O)N(CC(=O)Nc1ccc2c(c1)OCCO2)Cc1ccc(Cl)cc1", "Potency": "inactive: > 76.9 µM"}
{"smiles": "COc1ccccc1Oc1ccc(S(=O)(=O)NCc2ccccn2)cc1", "Potency": "inactive: > 76.9 µM"}
{"smiles": "CC1CCC(N2CCN(c3ncccn3)CC2)CC1", "note": "(stereo unspecified)", "Potency": "inactive: > 76.9 µM"}
{"smiles": "COc1ccc(C2C(C(=O)Nc3cccc(C)n3)c3ccccc3C(=O)N2C)cc1", "note": "(stereo unspecified)", "Potency": "inactive: > 76.9 µM"}
{"smiles": "CCOC(=O)C1=C(C)NC(C)=C(C(=O)OCC)C1c1ccccn1", "Potency": "inactive: > 76.9 µM"}
{"smiles": "COC(=O)C1(C)NC(c2ccco2)C2C(=O)N(c3ccc(C)cc3)C(=O)C21", "note": "(stereo unspecified)", "Potency": "inactive: > 76.9 µM"}
{"smiles": "COc1cc2c(=O)n(-c3ccc(C)cc3)c(=O)n(CC(=O)c3ccc4c(c3)OCO4)c2cc1OC", "Potency": "inactive: > 76.9 µM"}
